Laboratory results published in PubChem BioAssay AID743279 (National Center for Advancing Translational Sciences (NCATS), 2014).
The campaign covered roughly 360,000 compounds. About 17,000 (4.7%) were called active. The shares of active, inactive and inconclusive entries below differ from those in the screen. Cut-off read from the data, not from the text of the source: active = activity change below about -50%; inconclusive = mostly about -30% to -49%; inactive = weaker than that.

experiment: qHTS for Inhibitors of Inflammasome Signaling: IL-1-beta AlphaLISA Primary Screen; conditions: THP-1 LPS/ATP IL-1B secretion, 16 h; at 57.5 µM, hits give low values
In short: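 THP-1 cells pretreated 1 hr with compounds (up to 57.5 uM final), then stimulated with LPS (250 ng/mL final) plus ATP (1.25 mM final); secreted IL-1B measured by AlphaLISA after 16 hr, decreased signal indicating inhibition.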
% is set by controls: 0 for no effect and ±100 for the full control effect.

Activity change, inconclusive:
CC(=O)COc1ccc2c(c1C)O/C(=C\c1ccco1)C2=O -43.6%, O=C(C[C@H]1C(=O)N(Cc2cccnc2)C[C@@H]1Cc1ccccc1)Nc1ccc(Br)cc1 -33.1%, COC(=O)c1sc(-c2cccs2)cc1N -49.6%, Cc1c(C2Nc3ccccc3NC3=C2C(=O)CC(C)(C)C3)cnn1C (stereo unspecified) -37.9%, N#CC1CCCc2c1[nH]c1ccc([N+](=O)[O-])cc21 (stereo unspecified) -30%, CC1=C(C#N)C(NC(=O)c2ccc(Cl)cc2)(C(F)(F)F)C(=O)N1 (stereo unspecified) -48.3%, O=C(CCC1CCCCC1)N1CCN(Cc2ccc3c(c2)OCO3)CC1 -41.2%, CC(CNC(=O)c1ccccc1Cl)c1ccccc1 (stereo unspecified) -38.8%, CN1CCN(C(=O)c2sc(=S)n(-c3ccccc3)c2N)CC1 -33.9%, Cc1cc(C)cc(NC(=O)CN2CCC(NC(=O)c3cccc(F)c3)CC2)c1 -33.3%, O=[N+]([O-])c1ccc2c(c1)C(N1CCOCC1)/C(=C/COc1ccc3ccccc3c1Br)O2 (stereo unspecified) -30.5%, COc1ccc(-c2cc(-c3nnc(COC(=O)c4ccncc4)o3)c3ccccc3n2)cc1OC -38.2%, CCOc1cccc(-c2nn3c(-c4ccccn4)nnc3s2)c1 -40.5%, Cc1ccc(-c2nc(N)sc2-c2ccccc2)cc1C -35.4%, CCn1c(COc2c(C)cccc2C)nnc1SCC(=O)N1CCN(c2ccccc2)CC1 -34.4%, CCOc1ccc(OCC)c(NC(=O)C2CCN(c3nn4c(=O)cc(C)nc4s3)CC2)c1 -36.1%, COc1ccc(Oc2ccc(/C=N/NC(=O)c3cccnc3)cc2[N+](=O)[O-])cc1 -32.2%, CCc1nc2ccc(C(=O)NCCc3c[nH]c4ccccc34)cn2c1N(C=O)CCC(C)C -32.1%, COc1ccc(NC(=O)c2ccc3[nH]c(C)c(C)c3c2)cc1 -45.5%, COc1ccc(Br)cc1[C@H]1[C@H]2C=CC[C@@H](C)[C@@H]2C(=O)N1Cc1ccccc1 -42.8%, COc1ccccc1NS(=O)(=O)c1ccc(C)c(NC(=O)NC2CCCCC2)c1 -35.3%, O=C(CCCN1C(=O)c2cccc3cccc(c23)C1=O)NCc1cccnc1 -45%, COc1cc(/C=N/NC(=O)c2ccc(NC(=O)C3CCCCC3)cc2)ccc1O -32.6%, COc1ccc(N2CCN(C(c3ccccc3OC)c3nnnn3Cc3ccco3)CC2)cc1 (stereo unspecified) -37.1%, COc1cc(OC)c2c(C)cc(=O)oc2c1 -39%, CCOc1ccc2nc3sc(C(=O)N4CCOCC4)c(N)c3cc2c1 -43.2%, Cc1c(C(=O)OC/C(O)=C(\C#N)c2nc3ccccc3[nH]2)oc2ccccc12 -30.5%, CC(=O)NC1=C(N(C)C2CCS(=O)(=O)C2)C(=O)c2ccccc2C1=O (stereo unspecified) -41.4%, CC(C)C(=O)Nc1cccc(-c2csc(-c3ccccc3)n2)c1 -45.1%, CCOC(=O)[C@]12CCC=C1N(Cc1cccc3ccccc13)C(=O)[C@H](CC(=O)N1CCN(C(=O)c3ccco3)CC1)C2 -35.7%, CCn1c(SCC(=O)Nc2ccc3c(c2)oc2ccccc23)nnc1-c1ccc(N)cc1 -40%, Cc1ccc(CN2CC(C(=O)Nc3ccc(C)c(S(=O)(=O)N4CCCCC4)c3)CC2=O)cc1 (stereo unspecified) -48.9%, COc1ccc(C2=NC(=O)NC2c2ccc(OC)cc2)cc1 (stereo unspecified) -34.2%, CSc1cccc(CN2CCC(Oc3cccc(C(=O)N4CCCC4)c3)CC2)c1 -45.9%, COC(=O)Cc1[nH]nc2c1C1(C(=O)N(Cc3ccc(Cl)cc3)c3ccccc31)C(C#N)=C(N)O2 (stereo unspecified) -47.8%, Cc1ccc(-n2cc(CNC(C)c3cnn(C)c3C)c(-c3ccc(F)cc3)n2)cc1 (stereo unspecified) -33.8%, CC(C)CC1NC(=O)N(CC(=O)c2ccc3c(c2)OCCO3)C1=O (stereo unspecified) -30.9%, CN(NC(=S)Nc1ccc(OC(F)F)cc1)C(=S)Nc1ccc(OC(F)F)cc1 -33.9%

Activity change, inactive:
COc1ccc(S(=O)(=O)N(C)CC(=O)NC2CC2)cc1 15.5%, CC(C)N(C(C)C)S(=O)(=O)c1ccc(Cl)nc1 0%, COc1ccc(-c2[nH]ncc2[C@@H]2C[C@H]3CN(Cc4ccccc4C)C(=O)[C@]34CCCN24)cc1 -14.7%, N#Cc1c(-c2ccco2)nc(SCC(=O)Nc2cccc(Cl)c2)[nH]c1=O -13.2%, Cc1ccc(C)c(S(=O)(=O)N/N=C/c2ccc(F)cc2)c1 1.68%, NC(=O)C1CC(=O)N(c2ccc(OCc3ccc(Cl)c(Cl)c3)cc2)C1 (stereo unspecified) -27.7%, O=C(O)CCc1ccc(-c2cccs2)n1CC1CCCO1 (stereo unspecified) 3.76%, O=C(Nc1ccccn1)C1CCCN(c2ncnc3c2nc2n3CCCCC2)C1 (stereo unspecified) 65.7%, O=[N+]([O-])c1ccc(C=NN2CCOCC2)s1 4.68%, CCn1cc(C=C2C(=O)c3ccccc3C2=O)c2ccccc21 4.38%, NC(=O)c1[nH]cnc1N=NN(CCO)Cc1ccccc1 31.6%, COc1ccccc1OCC(=O)Nc1cccc(-c2nnc(-c3ccco3)o2)c1 -1.76%, c1ccc(CSc2ccc(-c3ccco3)nn2)cc1 -4.78%, O=C(c1ccc(Oc2ccccc2)cc1)c1nc2c(n1O)CCCC2 -5.67%, C[C@@H]1CN([C@@H](C)CO)C(=O)CCCn2nncc2CO[C@@H]1CN(C)C(=O)Nc1ccnc(N2CCOCC2)c1 17.8%, CCN(CC(=O)Nc1ccc2c(c1)OC(F)(F)O2)Cc1nc2ccccc2c(=O)[nH]1 0%, CCOC(=O)c1ccc(Oc2nc(N(C)C)nc(N(C)C)n2)cc1 -11.1%, COC(=O)C1=C(C(=O)OC)[C@@H]2N(C)c3ccc(OC)cc3[C@@]23C[C@@H](C(=O)OC)N(C(=O)c2ccco2)C3=N1 28.7%, Clc1ccc(NNc2ccnc3cc(Cl)ccc23)cc1 -29.8%, CCc1nc(SCC(=O)Nc2ccc(OC)cc2[N+](=O)[O-])n[nH]1 0%, O=C(Oc1cccc(NC(=O)c2ccccc2Cl)c1)c1ccc([N+](=O)[O-])cc1 14%, COc1cc(C(=O)NCCC(=O)NC2CCC(C)CC2)cc(OC)c1OC (stereo unspecified) 15%, CCOC(=O)n1n[n+]([O-])c2ccccc21 0%, CN(c1ccccc1C(=O)O)S(=O)(=O)c1ccc2[nH]c(=O)[nH]c2c1 12.5%, C=CCn1c(SCc2ccc(C#N)cc2)nnc1-c1cccc(OC)c1 -9.55%, Cc1cccc(CN2CCSCC2)c1 31%, CN(CC(=O)Nc1ccc(F)c(F)c1F)C(=O)c1ccc(-n2cncn2)cc1 31.4%, CC(C)c1ccc(C(=O)N2CCCC(c3cc(C(=O)NCc4ccccc4)no3)C2)cc1 (stereo unspecified) -1.1%, COc1ccc(NC(=O)CCC(=O)Nc2ccc3nc(N4CCOCC4)cc(C)c3c2)c(OC)c1 -3.75%, CC(C)CN(Cc1cc(=O)oc2cc3c(cc12)CCCC3)CC(C)C 1.71%, O=C(O)c1cnn2c1NC(c1ccc(F)cc1)CC2C(F)(F)F (stereo unspecified) 17.1%, Cc1cccc(C)c1NC(=O)CN(C)C(=O)Cc1cccc(C(F)(F)F)c1 -19.1%, O=C(N/N=C/c1ccc(O)cc1O)C(=O)N/N=C/c1ccc(O)cc1O 175%, CCNC(=S)N/N=C/c1cn(Cc2ccccc2F)c2ccccc12 -18.9%, COCCNC(=O)C(=O)NCC1OCCN1S(=O)(=O)c1cc(F)ccc1F (stereo unspecified) 25.6%, COc1ccc(Nc2nc(Cl)nc(NCc3ccco3)n2)c(OC)c1 29.5%, Cc1ccc(-c2nc3c(Cl)cc(C(F)(F)F)cn3c2Cc2ccsc2)cc1 20.5%

Activity change, active:
COc1ccc(N(Cc2cc(=O)[nH]c3ccccc23)C(=O)CCl)cc1 -98.2%, CCCCCN1CC(=O)N2Cc3[nH]c4ccccc4c3C[C@H]2C1=O -58.9%, CC(C)c1cc(C(=O)N2CCCC(C(=O)c3ccc4ccccc4c3)C2)on1 (stereo unspecified) -89.2%, C(=C1c2ccccc2-c2ccccc21)c1ccncc1 -78.2%, Cc1ccc(S(=O)(=O)/C(=C/Cl)NC(=O)c2ccccc2)cc1 -72.9%, CCOC(=O)C1(Cc2cccc(OC)c2)CCN(Cc2cccn2-c2nccs2)CC1 -76.8%, C[C@@H]1CN([C@H](C)CO)S(=O)(=O)c2ccc(Br)cc2O[C@@H]1CN(C)C(=O)Nc1ccc(C(F)(F)F)cc1 -70.2%, NCCNC(=O)Cn1c(=O)c2c3c(sc2n(Cc2ccccc2)c1=O)CCCC3 -77.6%, CCCCCCNC(=O)c1cn(CC)c2cc(N3CCN(C)CC3)c(F)cc2c1=O -55%, COc1ccc(C(=O)/C=C/c2ccc(O)cc2)cc1 -57.3%, C#CCOCCOCCOCCNc1nc(N2CCN(C(=O)CCCCCCCCCCNC(=O)[C@H](CO)n3cc(CCCSC)nn3)CC2)nc(N2CCN(C(=O)CCCCCCCCCCNC(=O)[C@H](CCCN=C(N)N)n3cc(C[C@@H](C)CC)nn3)CC2)n1 -103%
